Some of the results follow.

The assay concerns the target T1, OsWOX13 (Oryza sativa, UniProt Q5QMM3 1-267).
T1 sequence: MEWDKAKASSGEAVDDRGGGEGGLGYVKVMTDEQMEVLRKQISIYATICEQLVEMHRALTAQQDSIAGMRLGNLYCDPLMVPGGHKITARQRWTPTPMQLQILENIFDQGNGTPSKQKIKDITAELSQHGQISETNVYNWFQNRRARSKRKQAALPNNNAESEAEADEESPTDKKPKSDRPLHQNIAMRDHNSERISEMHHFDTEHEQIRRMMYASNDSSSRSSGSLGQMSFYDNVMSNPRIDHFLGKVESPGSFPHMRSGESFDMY
The assay can be described thus: protein-binding microarray (RPBM); PBS, 2% BSA, 51.3 ng/ul salmon testes DNA, 50 uM zinc acetate, 200 nM TF, 25 C, 1 h; high values mean tight binding. The settings on record: protein: recombinant; tags: N-terminal polyhistidine and DsRed monomer fusion (pET32a); label: CyDye5-dUTP incorporated in the synthesized complementary strand; 3' TTTTT single-stranded linker to array surface; dsDNA, one strand shown. The procedure, abridged:
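Binding signal is defined as the fluorescence intensity of each feature in arbitrary units, read on an Axon 4000B scanner. Transcription factors with N-terminal polyhistidine and DsRed fusions came from E. coli BL21-CodonPlus and were purified on Ni–NTA. They were incubated at 200 nM for 1 h at 25 °C on a custom Agilent array that had been made double-stranded with Cy5-dUTP, with 50 µM zinc acetate present, and the array was washed.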
For “TTTGAGCCTAATTAATCCGTCATTAGCACATGTGGGTTACCGGAGTCACCTAGTGCAG”, the binding signal was 7450 fluorescence intensity (a.u.). Then “GTCAAATCATGGCGCAATTAATCTTAAAAGATTTGTCTCGCGGAGTCACCTAGTGCAG”, with 23900 fluorescence intensity (a.u.); and “ATGGTCTTAATCAATTGATATTTATAGAAGGTTTCTTTGACGGAGTCACCTAGTGCAG”, with 15300 fluorescence intensity (a.u.). Take “CCGTTGATCCAAAACTGATTTAACTCGATCTCACCATACACGGAGTCACCTAGTGCAG”: the binding signal is 9590 fluorescence intensity (a.u.). Regarding “ATACTAAATTATTAATATCTAACCCACGAGTCCGTGATACCGGAGTCACCTAGTGCAG”, the binding signal was 10800 fluorescence intensity (a.u.). Consider “ACAAACATCAATCTAAATTTACGTTTTCTTAGTTGAAATACGGAGTCACCTAGTGCAG”, for which the binding signal was 14300 fluorescence intensity (a.u.). As for “AATTAATCACTTGATGCAACCCTAATCAACTAACTTTAACCGGAGTCACCTAGTGCAG”, the figure is 6590 fluorescence intensity (a.u.); as for “TGCAAACAATGATTTAGATGGTTGGTATAACCATATGTGACGGAGTCACCTAGTGCAG”, 3770 fluorescence intensity (a.u.); as for “ATGATGATGGGAATACCAAAAGGATTACAATGCGTCTGCCCGGAGTCACCTAGTGCAG”, 17100 fluorescence intensity (a.u.). As for “TTGTAGATTTATACCTGTCCTAATCAGAGTATACTGTATTCGGAGTCACCTAGTGCAG”, the figure is 3990 fluorescence intensity (a.u.); as for “GATAAATTAAAGTTTTACGTTGGAGACTATGTATGCACCACGGAGTCACCTAGTGCAG”, 8700 fluorescence intensity (a.u.). As for “GTCAACGGAGTAGAAATTATTAATTGAGAAAATTGTGCGCCGGAGTCACCTAGTGCAG”, the figure is 8230 fluorescence intensity (a.u.); as for “TCGATCCTGATTGAACGGTCATGATTTATAAGTTCTATTTCGGAGTCACCTAGTGCAG”, 31200 fluorescence intensity (a.u.); as for “AATCTAACGGGTGGGTCTCATGTATTGATGAGGAAGAAGACGGAGTCACCTAGTGCAG”, 5960 fluorescence intensity (a.u.). Turning to “ACCGATGGTGATTAGTTTGGGACCATTTGATTCCCCATGGCGGAGTCACCTAGTGCAG”, the binding signal is 19700 fluorescence intensity (a.u.). Then “ACAAATTGGACCACGATGTAAAACTTTGAAGGAGAGGGGCCGGAGTCACCTAGTGCAG”, with 9950 fluorescence intensity (a.u.). With “ATTTTGACAAGGTTTATTTTAACATCAAACAGCTGGTTACCGGAGTCACCTAGTGCAG”, the binding signal was 5490 fluorescence intensity (a.u.). As for “ACGTAGATTTACATTGGACCAGTAGTTAGCCTACTAGTACCGGAGTCACCTAGTGCAG”, the binding signal is 6800 fluorescence intensity (a.u.). Then “GTTAATGGGCCGAGTACTTTCTTCACTCTGTTTATCGGTCCGGAGTCACCTAGTGCAG”, with 3660 fluorescence intensity (a.u.). Then “TATCCCTGTGTTTCTAATTTGTGTCTATTTGTGATAATCCCGGAGTCACCTAGTGCAG”, with 3540 fluorescence intensity (a.u.); and “CTAATTATACAGATTGCGACTAATTTATGAGACGAATCTTCGGAGTCACCTAGTGCAG”, with 30000 fluorescence intensity (a.u.); and “CAAATTTAATTAATGTCTTCCATACTTTCATCATTAGAAGCGGAGTCACCTAGTGCAG”, with 30600 fluorescence intensity (a.u.). As for “GTAATTATTAATTCTTTTCATATCATTTGATTCATTGTTACGGAGTCACCTAGTGCAG”, the figure is 10400 fluorescence intensity (a.u.); as for “TGGAGATTGCTAATATCGCGGTTTAGAGTTGTCCCTTAAACGGAGTCACCTAGTGCAG”, 3720 fluorescence intensity (a.u.).

Consider “GAAAATTACATACTAATTACATATGGGGTGTAATTACTGTCGGAGTCACCTAGTGCAG”, for which the binding signal was 18900 fluorescence intensity (a.u.). Then “GTTTGATTGCACGACTGGTAACGGTTTCTTCTCTCTTTTGCGGAGTCACCTAGTGCAG”, with 50100 fluorescence intensity (a.u.).

As to “TCCCAATTACCTGCCCCTACCCAGGTATTGAAAAGGATGGCGGAGTCACCTAGTGCAG”, the binding signal was 4100 fluorescence intensity (a.u.).

Take “AAAATTGATGAATAATTACTCTACTGTTTTACTTCTAAATCGGAGTCACCTAGTGCAG”: the binding signal was 44400 fluorescence intensity (a.u.). Regarding “TACCACTCATTTGTGATAGATGAGATGCCACTTGTCTCCCCGGAGTCACCTAGTGCAG”, the binding signal is 7290 fluorescence intensity (a.u.). As for “ATATATATATATATATATACCTGTCGATGGTAAAATATGACGGAGTCACCTAGTGCAG”, the figure is 12600 fluorescence intensity (a.u.); as for “TGAGTTCTTGTTAATTACTAAAGGATTGCGGCCATGGATGCGGAGTCACCTAGTGCAG”, 3350 fluorescence intensity (a.u.). For the sequence “GAAATCATCATCACCAATCCCACCTGATTCCTCTCCACCGCGGAGTCACCTAGTGCAG”, the binding signal is 3950 fluorescence intensity (a.u.). As for “TCACATTGATATTAATTAATCTAGATAAATATATATATGTCGGAGTCACCTAGTGCAG”, the figure is 17200 fluorescence intensity (a.u.). As for “CGGTTAAAATGATTGTTAGTACAAATTTGGTACTACCTAACGGAGTCACCTAGTGCAG”, the figure is 25500 fluorescence intensity (a.u.). Then “CATCCAATCACAACCTTCCTCCATTTAATTCTACCTATTTCGGAGTCACCTAGTGCAG”, with 15700 fluorescence intensity (a.u.); and “TGTAAATTGCGAGACCAATCTTTTAAGCCTAATTACGCCACGGAGTCACCTAGTGCAG”, with 21000 fluorescence intensity (a.u.); and “GAGCTCAATTAATCTCCATCTCCACCGCGAGTCCGACGAACGGAGTCACCTAGTGCAG”, with 3660 fluorescence intensity (a.u.). “CTAATTAACTATCTTCATATACAAGCCCTGAACGATGCATCGGAGTCACCTAGTGCAG”: the binding signal is 10300 fluorescence intensity (a.u.). Then “TAGATGATTTCATATTGTCCTTTGAACTGTTCACTTTATTCGGAGTCACCTAGTGCAG”, with 3400 fluorescence intensity (a.u.). As for “GTATAATTACACTACGATTGTACTGTAATTACATCTGACACGGAGTCACCTAGTGCAG”, the figure is 17800 fluorescence intensity (a.u.); as for “TGAGCCTAATTAATCCATGATTAGCCTATGTGATGCTACCCGGAGTCACCTAGTGCAG”, 29500 fluorescence intensity (a.u.). “TTTGATGAGGTATCAAACTAAACAAGCTCGAATCCTGACTCGGAGTCACCTAGTGCAG”: the binding signal was 3870 fluorescence intensity (a.u.).
